# Reference: PubChem BioAssay (NCI)
# Where a structure was tested more than once in an assay, its records may differ in their call.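 How to read the values: 0–100, growth inhibition (40 = 60% inhibited); 0, no net growth; -100 to 0, cell death (-40 = 40% of starting cells died; -100 = all dead).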 The source holds more than one record for some entries. The list is limited to them. How the source made its calls: active means growth percent below 10; inactive means the rest. There may be further records. This drug was run again and again over the years, at its own concentration, as given; each value is one run. Additions like (4×) say how often a value occurs here.
# Experiments:
# Assay in all cases: NCI-60 one-dose screen, 48 h (100 = growth as untreated, 0 = no growth, -100 = all killed)
# MOLT-4 leukemia = conditions: 2.5 mM
# SR leukemia = conditions: 2.5 mM
# RPMI-8226 leukemia = conditions: 2.5 mM; runs of 1991
structure (smiles),measurement,setting,value
O=c1[nH]cc(F)c(=O)[nH]1,growth,MOLT-4 leukemia; runs of 1997,"active: 5.06, -21.3, -16.5, -22.3, 8.23, -26.7, -23.3, -31.8, -20.6, 0.704, 2.26, -12.9, 9.77, 3.7, -43.2, 1.4, 1.84, -5.57, -37.5, -25.2, -17.9, 1.16, -19.9, -52.8, -32.6% and inactive: 61.6, 10.2, 22.3, 41.1, 31.2, 18.9, 21.6, 19.6, 131, 15.8, 17.7, 47.3, 38.9, 22.2, 13.5, 35.7, 11.9, 23.3%"
same,growth,MOLT-4 leukemia; runs of 1998,"inactive: 25.5, 17.2, 39.7, 21.4, 22.7, 27.4, 42.2, 11.5, 35.6, 12.9% and active: -2.04, -24.2, -25, -39, 9.96, -19.5, 3.49, -11, 2.74, -56, 7.45, -37.5, 6.47, -19.1, -1.91, -18, 5.84%"
same,growth,MOLT-4 leukemia; runs of 1999,"active: 8.91, -22.3, 3.77, -50.6, 5.82, -55.4, -40.4, 0.53, 4.47, -72.6, 7.27, 6.22% and inactive: 18.3, 15.1, 19.1, 96.3%"
same,growth,MOLT-4 leukemia; runs of 2000,"active: 1%, 0.815% and inactive: 28.6%, 12.7%"
same,growth,SR leukemia; runs of 1991,"inactive: 10.7, 22, 12.7, 14.2, 21.8, 64.2, 17.1, 44.4, 37.8% and active: 8.79, 3.79, 9.57, 3.34, 8.21%"
same,growth,SR leukemia; runs of 1992,"inactive: 19.3, 18, 12.6, 47.5, 13.6, 37.1, 18.8, 34.7, 25.9, 20.9, 25.2, 21.5 (2×), 22.2, 16 (2×), 10.8, 15.2, 22.1, 15.6, 19.4, 52, 49.1, 18.7, 11.9, 12.7, 19, 14, 31.5, 19.2, 23.8, 84.8, 14.6, 12.2, 14.2, 27.9% and active: -10.6, -28, -13.9 (2×), 0.442, -41, -34.9, -6.43, -30.7, -13.3, -13, 9.67, -37.8, -21.5, -30.3, -5.13, -10.5, 8.2, -14.9, -11.7, 4.92, 7.6, -4.23, -20.9, -13.1, 7.93, 4.29, 8.85, 0.731, 0.249, 2.48, -10.4, 4.81, 4.2, 4.91, -9.81, -10.3, 5.59, 8.74, -26.4%"
same,growth,SR leukemia; runs of 1993,"inactive: 22.9, 17, 38.6, 22.6, 20.6, 20.7, 15.3, 26.8, 29.1, 53.4, 17.5, 26.5, 12.7, 11.4, 14.1, 58.7, 17.8, 16.7, 96.2, 45.5, 24.2, 16.5, 16.9, 24.4, 23.9% and active: 6.61, -15.2, 6.65, -2.05, 1.08, 9.09, -5.46, 5.77, -1.49, 1.75, -21, -12.9, -14.9, 9.28, -1.4, 5.21, -17.8, -3.56, 2.15, -2.96, -42.6, -19.9, 3.14%"
same,growth,SR leukemia; runs of 1994,"inactive: 21.3, 18.7, 28.1, 13.4, 51, 39.3, 23.6, 11.5 (2×), 17.3, 65.1, 20.9, 20.2, 54.8, 24.7, 17.7, 22.1, 30.6, 32.5, 17.1% and active: -35.5, 9.6, -15.5, -33.9, -5.47, 5.11, -26.6, 1.13, -38%"
same,growth,SR leukemia; runs of 1995,"active: -6.57, -34.1, -18, -12.6, -5.42, 5.55, 7.2, -18.6, 3.04, -37.8, -3.4, -13.4, 9.74, -40.8, 4.51, 3.19, 8.85, 0.895, -42.5, -54.3, -47.5, -14.8, -10.1, -52.4, -38.8, -13.8, -51, 0.187% and inactive: 12.4, 16.8, 32, 14.7, 18.7, 21.4, 29.9, 11.3%"
same,growth,SR leukemia; runs of 1996,"active: -25.2, -22.4, 5.35, -22.5, 0.454, -5.3, -47.8, 8.62, -4.33, -24.7, -25.3, -6.01, -12.7, -57.5, -47.6, -12.4, -15.5, -25.6, -17.3, -49.6, -14, -67.1, -50.5, -25.9, -54.9, -5.84, -94.6, -21.3, -21.5% and inactive: 39.2, 31.3, 28.6, 19.6, 26, 56.7, 54.1, 23.9%"
same,growth,SR leukemia; runs of 1997,"active: -31.4, -28, -26.8, -39.4, -69.9, -53.6, -19.5, -33.6, -55, -7.14, 1.86, -18.4, 9.39, 3.05, -65.6, -17.4% and inactive: 38.6, 39.6, 40, 12.6, 77.4, 25.2, 26.2, 16.4, 46.3, 51.5%"
same,growth,SR leukemia; runs of 1998,"inactive: 13.1, 26.5, 17.5, 20.7, 10.1, 38.5, 19.7, 13.5, 35.9, 11.9% and active: 8.87, 9.06, -47.2, 6.41, -6.47, 4.71, -28.8, 4.34, -29.2, 2.97, 9.83%"
same,growth,SR leukemia; runs of 1999,"inactive: 33.5%, 11.4%, 17.1% and active: -50.9, -19.6, -14.2, 5.9, 4.28%"
same,growth,SR leukemia; runs of 2000,"active: -40.6%, 9.26%, -54.2%"
same,growth,RPMI-8226 leukemia,"inactive: 22.4, 23.5, 35.7, 27, 13, 10.6, 26, 20.2, 13.6, 28, 50.6, 13.3% and active: -42.6%, 8.55%, 8.27%"
